Data taken from PMC7819943, “Rice protein-binding microarrays: a tool to detect cis-acting elements near promoter regions in rice”.
This is one part of the list.

Each sequence was assayed against T1, OsWOX13 (Oryza sativa, UniProt Q5QMM3 1-267) (assay: protein-binding microarray (RPBM); PBS, 2% BSA, 51.3 ng/ul salmon testes DNA, 50 uM zinc acetate, 200 nM TF, 25 C, 1 h; high values mean tight binding). Settings: protein: recombinant; tags: N-terminal polyhistidine and DsRed monomer fusion (pET32a); label: CyDye5-dUTP incorporated in the synthesized complementary strand; 3' TTTTT single-stranded linker to array surface; dsDNA, one strand shown.
T1 sequence: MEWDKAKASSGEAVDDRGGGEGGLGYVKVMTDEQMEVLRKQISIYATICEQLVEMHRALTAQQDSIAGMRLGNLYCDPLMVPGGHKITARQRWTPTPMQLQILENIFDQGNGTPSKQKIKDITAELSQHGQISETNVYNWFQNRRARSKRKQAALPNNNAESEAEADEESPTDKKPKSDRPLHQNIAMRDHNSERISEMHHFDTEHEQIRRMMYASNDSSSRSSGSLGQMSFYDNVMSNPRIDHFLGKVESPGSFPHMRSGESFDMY
How it was run: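 Transcription factors, each fused N-terminally to a polyhistidine tag and DsRed, were expressed in E. coli BL21-CodonPlus and purified on Ni–NTA. A custom Agilent array was made double-stranded by primer extension with Cy5-dUTP and blocked with 2% BSA. It was incubated with 200 nM protein in PBS, 2% BSA, salmon testes DNA and 50 µM zinc acetate at 25 °C for 1 h, then washed. The binding signal is per-feature fluorescence intensity (arbitrary units) read on an Axon 4000B scanner.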

Sequence | binding signal
CTTAATTAGATGAAATTTAGTACTATTAATTATACTCCATCGGAGTCACCTAGTGCAG | 50100 fluorescence intensity (a.u.)
TACTATGCATAATTTAATAATAAATCGACGATGAGGTCGACGGAGTCACCTAGTGCAG | 3870 fluorescence intensity (a.u.)
CATGTATCTAATTAACCCAATTTCCAACGGCACCCAGCTGCGGAGTCACCTAGTGCAG | 6770 fluorescence intensity (a.u.)
ATTCTACCTATCATCCATTTAAACATGCTACTAGCCATTCCGGAGTCACCTAGTGCAG | 4940 fluorescence intensity (a.u.)
GTTGTCTAATTTGTGCATTAACCATGTTGTAATGGCATGACGGAGTCACCTAGTGCAG | 24700 fluorescence intensity (a.u.)
GCATAGCTTGATTAACATAATTAGATGCAATGCATATAGGCGGAGTCACCTAGTGCAG | 25000 fluorescence intensity (a.u.)
GTTGAGTAATAAAATGCAATTATTGGTTATTTTGCAAAGTCGGAGTCACCTAGTGCAG | 4310 fluorescence intensity (a.u.)
TTAGATTGGCTATAAATGAATTGTAGCAAGGCTATACCGTCGGAGTCACCTAGTGCAG | 49800 fluorescence intensity (a.u.)
CGGATATATAATAAGGAGCTAATTAGCGCACTAATTTCTCCGGAGTCACCTAGTGCAG | 10700 fluorescence intensity (a.u.)
CCCTAATTTATACTCTAAGATACCGATGATGAAAGATGAGCGGAGTCACCTAGTGCAG | 21100 fluorescence intensity (a.u.)
ATTCAGTGTAATGAAGATCAATAAAACAAATAATTTTATGCGGAGTCACCTAGTGCAG | 15100 fluorescence intensity (a.u.)
ACTCAATTATCACCTCATTTTACATATCTTATTAATTTTACGGAGTCACCTAGTGCAG | 5700 fluorescence intensity (a.u.)
GCACCCTACTAAACAAGTGATTAGCCCAGCTAATTGCTGGCGGAGTCACCTAGTGCAG | 7800 fluorescence intensity (a.u.)
ATGAAATATGTAACAGATTATGACTTGGGTATTACGTTTCCGGAGTCACCTAGTGCAG | 5920 fluorescence intensity (a.u.)
CAAAATTGGAGGCGCGATTCTGTATCACTAATAATTCAGCCGGAGTCACCTAGTGCAG | 5950 fluorescence intensity (a.u.)
AATGATTGTCGAATAAGATGGGACTAATATTAATGTTAGTCGGAGTCACCTAGTGCAG | 31800 fluorescence intensity (a.u.)
ACTGCCAATCATATATATAGTTTATACTTATTCAAAACAACGGAGTCACCTAGTGCAG | 12900 fluorescence intensity (a.u.)
CACACGATTAATTTAAGTATTAATTACTTAAAACTTAAAACGGAGTCACCTAGTGCAG | 17700 fluorescence intensity (a.u.)
GAGCAGTTAATCTTTAATTAATCATGTGCTAATAAGCTTTCGGAGTCACCTAGTGCAG | 8720 fluorescence intensity (a.u.)
TAGGCCCACTAATTAGGCCCATCCAACACGCCGTCCGACGCGGAGTCACCTAGTGCAG | 4020 fluorescence intensity (a.u.)
ATTCAAATTTGTTATTACTAAAGCTTCCTGGTTTCATGCCCGGAGTCACCTAGTGCAG | 11700 fluorescence intensity (a.u.)

Sequence | binding signal
GGAGGTAATTTTCAAATTTGCCGGTTTAGTTCTCGAAGATCGGAGTCACCTAGTGCAG | 7790 fluorescence intensity (a.u.)
CCAATATGTCTTGAGATTGATGAAGTTATTACAGGTGCTTCGGAGTCACCTAGTGCAG | 6720 fluorescence intensity (a.u.)
TAACAAATTAATTTTGTCCATGCATGAACAAACCAGAATGCGGAGTCACCTAGTGCAG | 23700 fluorescence intensity (a.u.)
TTAGATTGAGAAGACTATGGCTCCTCAGTTCTCAACATGTCGGAGTCACCTAGTGCAG | 40800 fluorescence intensity (a.u.)
CATATACTTAATTGTTACTGATATAGTGTGATTTGGTGCACGGAGTCACCTAGTGCAG | 26700 fluorescence intensity (a.u.)
TCTCCTCCATCTCCTCGCTTCGTCCCGTTCACACCACCACCGGAGTCACCTAGTGCAG | 4880 fluorescence intensity (a.u.)
CGACTTGTAGATAGATAGATAGATAGATAGAAATAGAACGCGGAGTCACCTAGTGCAG | 13700 fluorescence intensity (a.u.)
ATAAATAATTTGCTGACTGGATTGCCACGCGTACGCCACGCGGAGTCACCTAGTGCAG | 19900 fluorescence intensity (a.u.)
GTCTATCAATCTGCATTTGACTAGCTTGCAGCTAGCACTTCGGAGTCACCTAGTGCAG | 10900 fluorescence intensity (a.u.)
ACGGAATTCGTCTAAAATTAATTGATTTCTACAGATTTCGCGGAGTCACCTAGTGCAG | 27100 fluorescence intensity (a.u.)
AATAATCTAGTGATGATGATGAATCTAACATCATCTAGAGCGGAGTCACCTAGTGCAG | 4080 fluorescence intensity (a.u.)
ACTGATTAGTGTCAATACGCATCTATCCAAACGTAAAAGCCGGAGTCACCTAGTGCAG | 38600 fluorescence intensity (a.u.)
TAACTGATGATGAGAATGCTGAATTATTGATGCACCAACTCGGAGTCACCTAGTGCAG | 5460 fluorescence intensity (a.u.)
ATTAATCCATAATTAGAGAATGTTTACTGTAGCATCACATCGGAGTCACCTAGTGCAG | 11400 fluorescence intensity (a.u.)
AGTAAACAGGTGATGAAATCAATATTATTGTGAAGCATAACGGAGTCACCTAGTGCAG | 3450 fluorescence intensity (a.u.)
TGCATTAACATGATTTTCTAAAGCAACTTTCGTATAGATTCGGAGTCACCTAGTGCAG | 5700 fluorescence intensity (a.u.)
AACAAATTGGAGCAAGTAGTGACCAGCAACTCATTGATCACGGAGTCACCTAGTGCAG | 8800 fluorescence intensity (a.u.)
CTTTCTTAATCTAATTTGTGTTTTCTTGACTGTCACGTGCCGGAGTCACCTAGTGCAG | 11700 fluorescence intensity (a.u.)
CTCGTAATTAACTTTGATGGGAACTTGAAACAGATGCAAGCGGAGTCACCTAGTGCAG | 44900 fluorescence intensity (a.u.)
CAACTAATCAGGCCCTAAAATAGACTAAAATAAACATTCACGGAGTCACCTAGTGCAG | 13000 fluorescence intensity (a.u.)
ATATAACTAAAATTACATTTGTAAATTCAGTTGATATGACCGGAGTCACCTAGTGCAG | 8700 fluorescence intensity (a.u.)
